According to the supplement of paper PMC10126150:
Values marked as one replicate rest on one cluster of the flow cell; about a third of the high ones do not repeat.

The sequences below were run on ATP (assay: switch fluorescence ratio, 500 uM ATP over buffer (Cy3 cluster intensity, sum of 5 cycles each) (fold (ratio)); higher = stronger signal-on switching upon ATP binding; sequences stand for … in TCGTCGGCAGCGTCAGATGTGTATAAGAGACAGTTTTTTTTTTTTTTTTTTTTTTTTT…TC). Conditions: aptamer strand: ATP DNA aptamer (quencher-CACCTGGGGGAGTATTGCGGAGGAAGG + anchor), 100 nM annealed; ATP concentration: 500 uM; one replicate.
Summary of the method: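 After annealing to 100 nM quencher-labelled ATP aptamer, Cy3-labelled switching-strand clusters on a modified Illumina MiSeq flow-cell were imaged in selection buffer. A second image followed after 15 min with 500 uM ATP at 22 °C, and five such buffer/ATP cycles were done, each separated by NaOH stripping and re-annealing. The fluorescence ratio, averaged per switch-domain sequence, is summed target-cycle over summed buffer-cycle Cy3 intensity per cluster, with clusters outside 100-1000 RFU excluded.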
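Further: ATP exposure 15 min at 22 °C before imaging.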

Sequence | switch fluorescence ratio
TGTGGATCAA | 1.02
TGTGGATCGT | 0.984
TGTGGCATGG | 0.995
TGTGGGCTTT | 0.949
TGTGGGTAGA | 0.995
TGTGGGTCG | 0.932
TGTGGTGGG | 1.02
TGTGGTTAAG | 1.04
TGTGTACG | 1.02
TGTGTACGTA | 1.1
TGTGTACGTT | 1.03
TGTGTAGGGA | 1.66
TGTGTATAAT | 0.98
TGTGTCATCT | 0.97
TGTGTCCCCG | 0.999
TGTGTGCAGC | 1.01
TGTGTGCCGT | 0.95
TGTGTGTGAT | 1.02
TGTGTGTGCA | 1
TGTGTTAATC | 0.961
TGTTAAAGAG | 1.01
TGTTAAGAAC | 1
TGTTACGCCC | 1.05
TGTTACTGCT | 0.969
TGTTAGGTGG | 1.02
TGTTAGTAAC | 0.977

Sequence | switch fluorescence ratio
TGTTATGGCG | 1.04
TGTTATTTGC | 0.969
TGTTCGATCT | 1.02
TGTTCGGCAC | 1.03
TGTTCGTGT | 0.991
TGTTCTTTCA | 0.963
TGTTGACACC | 1.03
TGTTGCCCAG | 0.967
TGTTGGAAAA | 1.26
TGTTGGATTC | 1.04
TGTTGGCATC | 1.41
TGTTGGCTGC | 0.968
TGTTGGTCA | 0.996
TGTTGTACAG | 0.983
TGTTGTAGAT | 1.03
TGTTGTGAAC | 1.04
TGTTGTGCGC | 0.909
TGTTGTGGAA | 0.982
TGTTTATATG | 0.943
TGTTTATCAC | 1.04
TGTTTCAAGG | 0.978
TGTTTCAGCA | 1.01
TGTTTCGCGT | 0.979
TGTTTGCGCG | 0.969
TGTTTGGACG | 1.01
TGTTTGTGGA | 0.982

Sequence | switch fluorescence ratio
TGTTTTTTCC | 1.13
TTAAAACATG | 1.02
TTAAACTACT | 1.1
TTAAACTATG | 1.07
TTAAACTCAT | 0.987
TTAAAGCATC | 2.24
TTAAAGCCTA | 0.901
TTAAAGCGAC | 1.99
TTAAAGGTAG | 1.04
TTAAATCAGT | 0.982
TTAAATCGGT | 1.01
TTAACAAATG | 1
TTAACATGGC | 1.06
TTAACGCGTG | 0.982
TTAACGCTAG | 1.06
TTAACGGAAG | 1.07
TTAACTATTG | 1.03
TTAACTGCA | 1.03
TTAACTGTGA | 1.03
TTAAGAAGGT | 0.961
TTAAGAGTTT | 1
TTAAGATCG | 1.04
TTAAGCATGA | 1.05
TTAAGCCGGG | 1.04
TTAAGGGG | 1.04
TTAAGTACT | 1.19

Sequence | switch fluorescence ratio
TTAAGTTACT | 1.04
TTAATACGGT | 1.03
TTAATAGCAG | 0.993
TTAATAGGCA | 0.996
TTAATCCAAA | 1.01
TTAATCGACC | 1.06
TTAATGAGGT | 0.999
TTAATGCTGA | 1.07
TTAATGGCTT | 1.04
TTAATGTTT | 0.99
TTAATTAGTG | 1.01
TTAATTATT | 1.01
TTAATTCTG | 1.01
TTAATTCTGA | 1.04
TTAATTGAAA | 0.988
TTACAAACCC | 1.16
TTACAGCGCT | 1.04
TTACAGCTTT | 0.997
TTACAGGTTA | 0.977
TTACAGGTTG | 1.11
TTACATAGGC | 1.07
TTACATCAGA | 1.02
TTACATCTCC | 1.08
TTACCAATAA | 5.18
TTACCAGAGC | 1.04
TTACCCCGGC | 1.1

Sequence | switch fluorescence ratio
TTACCCCTCA | 1.11
TTACCCGTAT | 0.992
TTACCGAGCT | 1.19
TTACCGTCG | 1.06
TTACCTACCG | 1.27
TTACGATATG | 1.21
TTACGATTGC | 1.96
TTACGGTGA | 0.994
TTACGTACAA | 1.48
TTACGTGATT | 1
TTACGTGCCA | 1
TTACGTTGGA | 1.02
TTACTAAGGA | 1.01
TTACTAGAGC | 1.03
TTACTAGCAT | 1.29
TTACTAGTTC | 0.989
TTACTATCCT | 1.07
TTACTCCGGT | 1.85
TTACTCTACG | 1.37
TTACTCTGCT | 1.28
TTACTGGACT | 1.23
TTACTTCTGT | 1
TTAGAAAAGC | 0.986
TTAGAAACC | 0.992
TTAGAACCTT | 1.68
TTAGAAGAC | 1.03

Sequence | switch fluorescence ratio
TTAGACAGCG | 0.99
TTAGACATTG | 1.03
TTAGACCAGC | 0.95
TTAGACCAGG | 1.09
TTAGACGAAC | 1.39
TTAGACTTGT | 0.993
TTAGAGACTA | 1.02
TTAGAGTTCT | 1.02
TTAGATATAC | 1.36
TTAGATGAAA | 0.993
TTAGCACATC | 2.13
TTAGCACTCC | 1.54
TTAGCAGGAC | 4.16
TTAGCCACTA | 1.03
TTAGCCGATC | 1.08
TTAGCCTTTT | 0.968
TTAGCGAGAA | 1.13
TTAGCGCGG | 1.03
TTAGCGTGGA | 1.04
TTAGCTTAAC | 1.2
TTAGGACGTA | 1.03
TTAGGACTGC | 0.988
TTAGGAGTCG | 0.986
